# Reference: PubChem BioAssay AID1851 (National Center for Advancing Translational Sciences (NCATS), 2009)
# Only a part is listed here, and it is no random draw. Results filed as inconclusive are left out. Activity calls are given as the source filed them. Calls follow the shape of the dose curve; as a rule, active = well fitted curve in the direction sought with a large enough effect; inconclusive = small, poorly fitted or top-dose-only effect, or effect the other way; inactive = no such curve, though single readings can be large or run the other way.
# Target: Cytochrome P450 2D6 (Homo sapiens) (UniProt P10635)
# Chain of UniProt P10635 (P10635 whole entry, looked up): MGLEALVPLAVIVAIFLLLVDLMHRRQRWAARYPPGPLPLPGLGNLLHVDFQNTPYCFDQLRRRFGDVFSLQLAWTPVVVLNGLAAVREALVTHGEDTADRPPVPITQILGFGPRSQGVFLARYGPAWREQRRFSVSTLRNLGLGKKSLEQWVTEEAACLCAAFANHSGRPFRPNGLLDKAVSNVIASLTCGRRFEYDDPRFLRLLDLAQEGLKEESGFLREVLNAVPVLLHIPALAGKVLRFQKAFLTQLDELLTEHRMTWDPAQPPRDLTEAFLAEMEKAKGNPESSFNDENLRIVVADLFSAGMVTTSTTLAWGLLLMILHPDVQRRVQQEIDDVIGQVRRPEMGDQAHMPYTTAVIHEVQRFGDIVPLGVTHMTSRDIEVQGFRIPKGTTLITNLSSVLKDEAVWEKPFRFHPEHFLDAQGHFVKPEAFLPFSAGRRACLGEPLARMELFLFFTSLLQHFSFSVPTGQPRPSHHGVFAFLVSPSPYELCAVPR
# Test: Cytochrome panel assay with activity outcomes
# Conditions: recombinant CYP, pro-luciferin dealkylation, luminescence, p450-cyp2d6
# Procedure: The P450 gene superfamily is involved in the metabolism and clearance of xenobiotics. This assay used various human CYP P450 isozymes to measure the dealkylation of various pro-luciferin substrates to luciferin. The luciferin is then measured by luminescence after the addition of a luciferase detection reagent. Pro-luciferin substrate concentration in the assay was equal to its KM for its CYP P450 isozyme. Inhibitors and some substrates limit the production of luciferin, and decrease measured luminescence.
# NCGC Assay Protocol Summary:
# 1, Reagent, 2 uL, Isozyme and Pro-Luciferin
# 2, Library compounds, 23 nl, 40 uM to 0.24 nM dilution series
# 3, Controls, 23 nl, Isozyme specific inhibitor
# 4, Reagent, 2 uL, NADPH regeneration solution
# 5, Incubation time, 60 min, Isozyme specific temperature
# 6, Reagent, 4ul, Detection reagent
# 7, Incubation time, 20 min, Isozyme specific temperature
# 8, Detection, 1 sec, ViewLux luminescent read
# The luciferase-based P450-GloTM Screening Systems were obtained from Promega (Madison, WI) for CYP 1A2 (V9770), CYP 2C9 (V9790), CYP2 C19 (V9880), CYP 2D6 (V9890), and CYP 3A4 Luciferin-PPXE (V9910) and were adapted for 1,536-well microplates and an automated protocol. […]
# % is scaled to controls: 0 for no effect and ±100 for the full control effect.
structure (smiles),measurement,setting,value
CN1[C@@H]2CC[C@H]1CC(OC(=O)[C@@H](O)c1ccccc1)C2 (some centres not stated),"activity, negative = inhibition",at 11.4 µM (top of the series),inactive: 4.09%
same,"activity, negative = inhibition",at 25.6 µM (top of the series),inactive: -4.37%
